The results in this text go back to patent US20190062448A1, “ANTI-CD39 ANTIBODIES, COMPOSITIONS COMPRISING ANTI-CD39 ANTIBODIES AND METHODS OF USING ANTI-CD39 ANTIBODIES” (Tizona Therapeutics, priority 2017, published 2019).

For assay [1], the target named is T1, recombinant human CD39 extracellular domain (rhCD39-ECD-His) (Homo sapiens, UniProt P49961).
T1 construct: His (C); purchased R&D Systems
T1 sequence (P49961 38-478 limits assumed): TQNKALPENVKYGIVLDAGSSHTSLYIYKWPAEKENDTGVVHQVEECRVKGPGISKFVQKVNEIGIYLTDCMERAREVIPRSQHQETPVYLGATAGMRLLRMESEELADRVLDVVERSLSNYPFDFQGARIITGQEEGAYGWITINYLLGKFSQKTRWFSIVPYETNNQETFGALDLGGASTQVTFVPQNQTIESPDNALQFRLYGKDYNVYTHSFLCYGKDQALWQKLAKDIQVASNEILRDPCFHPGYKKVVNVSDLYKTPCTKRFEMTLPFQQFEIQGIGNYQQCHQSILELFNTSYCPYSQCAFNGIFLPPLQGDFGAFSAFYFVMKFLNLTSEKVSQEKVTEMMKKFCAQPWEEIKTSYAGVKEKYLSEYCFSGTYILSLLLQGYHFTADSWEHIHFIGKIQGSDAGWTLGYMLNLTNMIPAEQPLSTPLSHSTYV
Kind of assay: Binding kinetics to recombinant CD39 ECD by biolayer interferometry (Octet). From the text:
FIG. 1 provides a table showing monovalent affinity of anti-huCD39 antibodies to recombinant human CD39 extracellular domain. The table provides binding kinetics of anti-CD39 antibodies interacting with soluble recombinant human CD39 (ENTDP1) extracellular domain (ECD) by biolayer interferometry (ForteBio Octet). Anti-CD39 antibodies were captured on an anti-human Fc sensor and exposed to recombinant human CD39 ECD at concentration ranging from 10-300 nanomolar. The kinetic data was globally fit with a simple 1:1 Langmuir binding model to yield on-rate (kon) and off-rate (koff) values. The equilibrium dissociation constants (KD) were calculated from the kon and koff values.
Binding kinetics were measured using the Octet Red96 system (ForteBio) at 25° C. in running buffer (1× Pall ForteBio Kinetics Buffer diluted into PBS or Tris pH 7.4). In brief, 1.25 mg/ml of unlabeled anti-hCD39 antibodies were immobilized onto anti-human Fc sensors. After a short baseline step in running buffer, the sensors were exposed to varying concentrations (10-300 nM) of rhCD39-ECD-His (R&D Systems) for the association step. Dissociation of the complex was monitored upon exposure of the sensors to running buffer once again. […] KD was calculated from the ratio of kd to ka.
PF=poor fit. […] The equilibrium dissociation constants (KD) were calculated from the kon and koff values.
In general terms: BLI is a label-free optical method that tracks binding on a fibre tip over time.

The target of assay [2] is T2, human CD39 on CHO CD39 cells (Homo sapiens, UniProt P49961).
T2 construct: expressed in transfected cells; host or cells: Chinese Hamster Ovary K1 (CHO)
T2 sequence (P49961 1-510): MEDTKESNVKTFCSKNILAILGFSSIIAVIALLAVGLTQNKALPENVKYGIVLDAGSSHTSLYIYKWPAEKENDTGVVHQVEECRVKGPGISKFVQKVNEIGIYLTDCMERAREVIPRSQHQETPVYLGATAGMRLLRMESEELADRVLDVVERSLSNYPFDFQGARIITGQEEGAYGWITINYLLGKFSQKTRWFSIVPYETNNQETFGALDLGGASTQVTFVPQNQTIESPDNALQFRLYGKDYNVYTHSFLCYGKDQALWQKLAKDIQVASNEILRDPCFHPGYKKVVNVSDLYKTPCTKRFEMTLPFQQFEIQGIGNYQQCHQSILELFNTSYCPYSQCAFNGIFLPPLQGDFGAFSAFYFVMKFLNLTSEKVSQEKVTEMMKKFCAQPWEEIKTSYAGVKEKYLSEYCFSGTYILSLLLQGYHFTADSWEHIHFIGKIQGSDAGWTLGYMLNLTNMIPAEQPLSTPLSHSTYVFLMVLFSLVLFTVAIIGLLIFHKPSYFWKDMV
Kind of assay: Binding to CHO cells expressing human CD39 (flow cytometry). As to the method:
Binding of anti-CD39 IgGs to Chinese Hamster Ovary K1 (CHO) CD39 cells. 100 nanomolar IgGs (each antibody is indicated as a unique clone number in the FIG.) were incubated at 25° C. for 30 minutes on ice in phosphate buffered saline (PBS) with parental CHO cells or CHO cells engineered to express either human or cynomolgus macaque (Macaca fascicularis) CD39 (CHO CD39 cells). Cells were then washed with ice cold PBS and incubated with a fluorescently labeled goat-anti-human IgG for 20 minutes on ice. Cells were washed and resuspended in ice cold PBS prior to analysis by flow cytrometry. Fold over background binding levels represent the ratio of median fluorescence intensity (MFI) values for anti-CD39 antibodies binding to CHO CD39 to MFI values for anti-CD39 antibodies binding to the parental CHO cells.
For orientation: A flow cytometer gives signals particle by particle.

The target of assay [3] is T3, CD39 expressed on MEL-28 cells (Homo sapiens, UniProt P49961).
T3 construct: endogenous in cells; host or cells: MEL-28
T3 sequence (P49961 1-510): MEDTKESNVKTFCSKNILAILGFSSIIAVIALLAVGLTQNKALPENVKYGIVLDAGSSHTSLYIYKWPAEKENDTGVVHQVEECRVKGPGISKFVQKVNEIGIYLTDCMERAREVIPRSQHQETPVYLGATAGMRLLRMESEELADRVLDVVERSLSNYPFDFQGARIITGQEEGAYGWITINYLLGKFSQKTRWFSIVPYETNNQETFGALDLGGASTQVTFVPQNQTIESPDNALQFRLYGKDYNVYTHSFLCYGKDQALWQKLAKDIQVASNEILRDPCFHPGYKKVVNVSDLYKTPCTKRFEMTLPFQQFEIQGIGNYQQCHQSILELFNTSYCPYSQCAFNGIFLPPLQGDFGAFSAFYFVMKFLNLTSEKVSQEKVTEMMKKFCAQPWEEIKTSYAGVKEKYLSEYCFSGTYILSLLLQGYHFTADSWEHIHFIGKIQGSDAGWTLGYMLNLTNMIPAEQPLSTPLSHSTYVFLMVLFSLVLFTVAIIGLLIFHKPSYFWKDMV
Kind of assay: Cellular CD39 ATPase inhibition (Malachite Green), Example 15. Type of assay: cell-based. The conditions noted are these: 10-25 μg/ml antibody; 50 μM ATP; vs isotype control. As for the experimental part:
(§1) Indicated cells were incubated in assay buffer with 10-25 μg/ml antibody, 100 μM POM-1 or 100 μM ARL for 30 min at 37° C. 5% CO2. ATP was added to a final concentration of 50 μM and the incubation continued for 15 min. Supernatant was evaluated for free phosphate (Pi) using the Malachite Green Phosphate Detection kit. Palivizumab is used as an isotype control and POM-1 and ARL are non-specific small molecule inhibitors of CD39.
(§2) Also, an 18 hour incubation was used with the antibody or isotype control. Finally, an additional 30 second baseline dip in buffer between antigen capture and dipping into a second competitor antibody for 300 seconds was used.

The target in the next assay is T4, CD39 expressed on OAW42 (Homo sapiens, UniProt P49961).
T4 construct: endogenous in cells; host or cells: OAW42
T4 sequence (P49961 1-510): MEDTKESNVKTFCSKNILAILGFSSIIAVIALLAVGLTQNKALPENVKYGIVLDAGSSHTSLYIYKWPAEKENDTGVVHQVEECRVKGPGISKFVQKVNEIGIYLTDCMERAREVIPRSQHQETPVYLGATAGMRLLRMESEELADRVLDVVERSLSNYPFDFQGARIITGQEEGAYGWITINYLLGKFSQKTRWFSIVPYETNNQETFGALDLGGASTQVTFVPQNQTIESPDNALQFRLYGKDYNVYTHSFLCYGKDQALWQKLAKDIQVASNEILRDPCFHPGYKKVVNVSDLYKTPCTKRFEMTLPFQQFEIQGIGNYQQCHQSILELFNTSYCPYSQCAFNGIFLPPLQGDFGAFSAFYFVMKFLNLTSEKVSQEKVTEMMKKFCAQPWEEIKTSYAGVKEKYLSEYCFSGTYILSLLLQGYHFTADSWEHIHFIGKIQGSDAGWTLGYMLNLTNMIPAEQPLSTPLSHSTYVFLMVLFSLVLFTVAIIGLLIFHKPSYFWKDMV
Described as above. Conditions: 10-25 μg/ml antibody; 50 μM ATP; vs isotype control. Type of assay: cell-based. As to the method:
as §1

Assay [4] concerns the target T5, hCD39-ECD (Homo sapiens, UniProt P49961).
T5 sequence (P49961 38-478 limits assumed): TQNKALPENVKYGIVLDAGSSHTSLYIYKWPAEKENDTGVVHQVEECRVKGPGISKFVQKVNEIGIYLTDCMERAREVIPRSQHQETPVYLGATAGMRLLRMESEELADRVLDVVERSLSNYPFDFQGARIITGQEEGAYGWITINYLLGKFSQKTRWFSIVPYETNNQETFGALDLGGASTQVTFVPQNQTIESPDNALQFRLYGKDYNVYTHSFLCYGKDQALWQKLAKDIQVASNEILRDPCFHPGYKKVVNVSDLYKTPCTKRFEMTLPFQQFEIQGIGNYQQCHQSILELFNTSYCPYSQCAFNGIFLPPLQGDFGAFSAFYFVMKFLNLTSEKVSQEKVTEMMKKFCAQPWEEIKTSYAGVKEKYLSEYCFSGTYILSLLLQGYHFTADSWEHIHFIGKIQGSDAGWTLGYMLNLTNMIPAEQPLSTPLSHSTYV
The experiment in a line: Epitope binning / competition for hCD39-ECD binding by Bio-Layer Interferometry.
Text: A1 antibody was immobilized onto an Anti-Mouse IgG Fc Capture (AMC) biosensor (ForteBio). Association of hCD39-ECD was then monitored for 180 seconds via Bio-Layer Interferometry (BLI) using the Octet system (ForteBio), at which point the biosensor was dipped into competitor antibody and monitored for another 180 seconds.
The methods are the same as set forth above except that instead of A1, the representative antibody was immobilized using anti-human IgG Fc Capture (AHC) biosensor.
as §2

Assay [5] has as its target T5, hCD39-ECD. Kind of assay: rhCD39-ECD ATPase inhibition (Malachite Green free phosphate). More on the design: purchased R&D Systems. Type of assay: biochemical. The conditions noted are these: 50 μg/ml antibody; 10 μM ATP; vs isotype or buffer controls. As for the experimental part:
0.04-3.3 nM rhCD39-ECD (R&D Systems) was incubated with buffer, 50 μg/ml antibody or 100 μM POM-1 (Alpha Aesar) for 1 hr at 37° C. in assay buffer (25 mM Tris pH 7.5, 5 mM CaCl2) at which point ATP (Sigma) was spiked in to a final concentration of 10 μM, and the reaction further incubated for 30 min 37° C. Production of free phosphate (Pi) was subsequently measured using Malachite Green Phosphate Detection kit (R&D Systems).
as §2

B1: 27536: anti-hCD39 antibody binding ECD and cellular CD39, inhibits ATPase; own bin group with 28337 (antibody, V domains shown)
VH: QVQLVQSGAEVKKPGSSVKVSCKASGGTFSNYAISWVRQAPGQGLEWMGGIIPIFGTANYAQKFQGRVTITADESTSTAYMELSSLRSEDTAVYYCARDTLYSSGAYYGYNVWGQGTMVTVSS
VL: DIVMTQSPDSLAVSLGERATINCKSSQSVLYSSNNKNYLAWYQQKPGQPPKLLIYWASTRESGVPDRFSGSGSGTDFTLTISSLQAEDVAVYYCQQAYTFPPTFGGGTKVEIK
modifications: Synthetic VH, 27536; Synthetic VL, 27536
As for B1, the “binding to soluble recombinant human CD39 ECD (in words)” value in assay [1] is “bind both soluble ECD and cellular CD39”. Moreover, the “binding to cellular human CD39 (in words)” value in assay [2] is “bind both soluble ECD and cellular CD39”. The “inhibition of ATPase activity of CD39 expressed on MEL-28 cells” value in assay [3] was “inhibit the hydrolysis of CD39 expressed on MEL-28 and OAW42 cells”. The “inhibition of ATPase activity of CD39 expressed on OAW42 cells” value in the assay with CD39 expressed on OAW42 was “inhibit the hydrolysis of CD39 expressed on MEL-28 and OAW42 cells”. Also, in the assay with hCD39-ECD [4], the “competition / binning with other anti-CD39 antibody bin groups for ECD binding” value is “do not compete with other inhibitors for CD39 binding”. For the same molecule, the “competition with antibody A1 for binding to hCD39 ECD” value with hCD39-ECD [4] (A1 immobilized, ECD captured, then competitor antibody) was “does not block binding”. Further, the “inhibition of ATPase activity of soluble hCD39 ECD (μM Pi)” value in the assay with hCD39-ECD [5] is “able to inhibit the hydrolysis of ATP by hCD39 ECD”.
